From publication PMC2034485 (Nucleic Acids Research, 2007)

Target: the molecule itself
Assay: SEC-MALS

B1: C207F mutant of human Rad18 (natural protein)
chain: not shown
B1 was tested, and the “stoichiometry N” value was 2.
